Source: the supplement of paper PMC11417369
± gives the standard deviation of the averaged measurements. The list shows a part of the results.

System: PfAP2-LT AP2 domain (GST-tagged)
Assay: gcPBM binding intensity (ln(normalized median fluorescence intensity)); higher = stronger DNA binding
Summary of the method: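 After 1 h on an Agilent 4 × 180k array of primer-extended double-stranded 36-bp intergenic genomic probes and negative controls, bound GST-tagged P. falciparum DNA-binding domains were detected with Alexa488 anti-GST antibody and scanned at 488 nm. The domains had been expressed in E. coli, and binding took place in 1× PBS with 1% milk, 0.2 mg/ml BSA, 0.5% salmon testes DNA and 0.03% Triton X-100. Binding intensity is the highest Masliner-normalised natural-log median intensity across replicate spots of either probe orientation.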

Row | Sequence | gcPBM binding intensity (ln)
1 | TTTTTTAGAAAAAGTTGTACTTTTTTTTTTTTTTTT [XGTACX_site535] | 8.14 ± 0.53
2 | ATATATATAATATAGGTGCACTACTTATTTAAAAAA | 8.76 ± 0.43
3 | TAAAAATGTAGACACACACACATATATATATTTAAT [CACACA_site1528] | 9.55 ± 0.28
4 | TTAATAACAAAATAAACACACATATATAAATCCACA [CACACA_site1590] | 9.09 ± 0.38
5 | AAATAATTAGCTATTTGTACATATATACATATTTAT [XGTACX_site4652] | 8.97 ± 0.46
6 | ACTACCTATATTTAAGCATGCAAAAAATAAAAATAT [TGCATGCA_site238] | 8.89 ± 0.41
7 | ATAAATTGTTCTTTTTGTGTAAACAGAATATTAAAA [CACACA_negctrl_site1022] | 8.31 ± 0.45
8 | TTAATTTGTTCTTACACACACATATATATATATTTA [CACACA_site1185] | 9.18 ± 0.37
9 | ATTTTTTTTTTTATTTTCTTTGAGATTATCTTAATT [CACACA_negctrl_site1209] | 8.61 ± 0.47
10 | ATATTTTAAATGTTATGTACACATTTGTTGTTTACA [XGTACX_site7353] | 8.89 ± 0.45
11 | AATATTATTATTATTACACACACAATTATATTTACC [CACACA_site8061] | 9.35 ± 0.38
12 | TATATATATACATAATGTACATTTTATAAATTTACA [XGTACX_site5283] | 8.62 ± 0.44
13 | AAATAACACATATATACACACATATAAATATAATAT [CACACA_site2692] | 9.29 ± 0.34
14 | AAAAAAAAAAAAAAAATACACACGTGAATGTATTGT [CACACA_site1320] | 9.12 ± 0.31
15 | AAAAAACTTATAATCACACATATGATTAAATATTAA [CACACA_site4956] | 8.62 ± 0.54
16 | ATAGGACCTATGTGCCCATGGGTACATTAAAAAAAA [CACACA_negctrl_site1465] | 8.87 ± 0.6
17 | AATTATTTTTTGTATGAACACACAACTTAATTATGA [CACACA_site8774] | 8.87 ± 0.45
18 | TTGAATGTAGTTAAATGTACATGTAATATATAAAAA [XGTACX_site1250] | 8.85 ± 0.5
19 | TTTGTTTTAAATCGAAGTACACATAATTATATTTTA [XGTACX_site1541] | 8.35 ± 0.4
20 | ATACAACATATATATACACACATATAATAATAATAA [CACACA_site3367] | 9.26 ± 0.38
21 | AAACCAATAAAAAACTGTACAAAAATTATATGAGAT [XGTACX_site1269] | 8.95 ± 0.45
22 | TAATATAAAGGAAAAGAAAAGAAAAGAATATACAAT [CACACA_negctrl_site1369] | 8.69 ± 0.52

Row | Sequence | gcPBM binding intensity (ln)
23 | GAATAAAAAATATATGTGCACATATAAACTTAAAAT [GTGCAC_site9554] | 9.19 ± 0.57
24 | AAAAAAAAAAAAAAAAAAAAAAAAATCACACATTGG [TGCATGCA_negctrl_site412] | 9.05 ± 0.28
25 | TTTTGGATGTATTATACATGCATATTATTATAATAT [TGCATGCA_site997] | 8.62 ± 0.42
26 | ATATATCTACAAATATGTACACACACACATATATAT [XGTACX_site1075] | 9.74 ± 0.38
27 | AGAAAAGAAATTAAATGTACACAACTATAACCAAAT [XGTACX_site8084] | 9.03 ± 0.44
28 | AAAAAAAAAAAATAAAGTACTAAATAATACATTATA [XGTACX_site6203] | 8.54 ± 0.45
29 | TGTACAACAATTTTTGCACACACCAAAACATAAAAT [CACACA_site1598] | 9.36 ± 0.29
30 | ATTATGTTATTATTTTGTACACATAAATAATACGTT [XGTACX_site816] | 8.96 ± 0.47
31 | TGTTTCTTATTTTTTTCACACACTAATCATTTCAAA [CACACA_site8695] | 8.97 ± 0.54
32 | GAACAAAAATACTTATGTACACATTAGCAAGGAAAA [XGTACX_site5622] | 8.89 ± 0.5
33 | TCATATGTGAAACACACACACACACCCAAAAAAACA [CACACA_site3247] | 10.06 ± 0.028
34 | AAAAAAAATATCCGACGTACTATTTTCGTAGAAATA [XGTACX_site6292] | 8.63 ± 0.4
35 | AAACAAAAAAGAAGCACACATATATATATATATATG [CACACA_site2456] | 9.31 ± 0.38
36 | TATACGCATATATACACACACATATATATATATATA [CACACA_site3416] | 10.1 ± 0.11
37 | ATCTGAAAAATTAATAGTACAATTAATAATTAAACC [XGTACX_site8523] | 8.72 ± 0.42
38 | ACAAATAAATATTCGCGTACTTATATAATATTACGA [XGTACX_site6428] | 8.84 ± 0.37
39 | TGTTAATTTCATTTTCTACACACCTATCCTTTTTTT [CACACA_site8157] | 9.07 ± 0.65
40 | AACAAACAAATAGTTTATTTTGATTTTTTTAAAAAT [CACACA_negctrl_site693] | 8.19 ± 0.37
41 | CATACATACATATATACACACATATATAATAATATA [CACACA_site2678] | 9.19 ± 0.39
42 | TACGAATTAAAAAAGAGTACAAATAAAATATCTACA [XGTACX_site7412] | 8.65 ± 0.48
43 | AATTAGCTCAAAGGTTGTACAAATATATTTTAATGG [XGTACX_site2352] | 8.66 ± 0.48
44 | TTTTAAACACCAATCAAAAAAATATAAATATAAATA [TGCATGCA_negctrl_site552] | 8.45 ± 0.48
